From a collection of fitness landscapes (doi:10.1126/science.1257360) come the findings set out here.

Some of the results follow. Where only a bound is given, the exact number is not on record here.

Sequences and labels used below:
B1: PhoQ; a variant is named by its letters at X, in order, P23837 (parent)
chain: MKKLLRLFFPLSLRVRFLLATAAVVLVLSLAYGMVALIGYSVSFDKTTFRLLRGESNLFYTLAKWENNKLHVELPENIDKQSPTMTLIYDENGQLLWAQRDVPWLMKMIQPDWLKSNGFHEIEADVNDTSLLLSGDHSIQQQLQEVREDDDDAEMTHSVAVNVYPATSRMPKLTIVVVDTIPVELKSSYMVWSWFIYVLSANLLLVIPLLWVAAWWSLRPIEALAKEVRELEEHNRELLNPATTRELTSLVRNLNRLLKSERERYDKYRTTLTDLTHSLKTPLXXLQXXLRSLRSEKMSVSDAEPVMLEQISRISQQIGYYLHRASMRGGTLLSRELHPVAPLLDNLTSALNKVYQRKGVNISLDISPEISFVGEQNDFVEVMGNVLDNACKYCLEFVEISARQTDEHLYIVVEDDGPGIPLSKREVIFDRGQRVDTLRPGQGVGLAVAREITEQYEGKIVAGESMLGGARMEVIFGRQHSAPKDE

The variants in the assay derive from B1. The assay can be described thus: enrichment ratio after two sorts for PhoP signalling (ratio (wild type AVST 3.29)); higher = more functional. The settings on record: with PhoP (E. coli).
FPIF: the enrichment ratio is at most 0.25. Consider ILFV, for which the enrichment ratio is at most 0.25. As for VGHR, the enrichment ratio was at most 0.25. On to LILL, for which the enrichment ratio was at most 0.25. For VFNC the value was at most 0.25; for HDRL, at most 0.25; for WTTA, at most 0.25. VLLK: the enrichment ratio is at most 0.25. Turning to VTQQ, the enrichment ratio is at most 0.25. In the case of WEDM, the enrichment ratio was at most 0.25.

As to PQEI, the enrichment ratio was at most 0.25.

Regarding FLWV, the enrichment ratio is at most 0.25. In the case of YYPR, the enrichment ratio was at most 0.25. For HWGL the value was at most 0.25; for MRGA, at most 0.25.

FRMM: the enrichment ratio was at most 0.25. On to QPQY, for which the enrichment ratio is at most 0.25. In the case of RPGM, the enrichment ratio is at most 0.25. Consider NLCG, for which the enrichment ratio is at most 0.25.

Take GLPM: the enrichment ratio was at most 0.25.

With QFLT, the enrichment ratio was at most 0.25.

In the case of DMQC, the enrichment ratio was at most 0.25. As to FCES, the enrichment ratio was at most 0.25. In the case of HWVI, the enrichment ratio was at most 0.25.

IQCL: the enrichment ratio is at most 0.25. Turning to MILK, the enrichment ratio stood at 1.25. Next, VHNL: at most 0.25; GYAH: at most 0.25.

Regarding CYNK, the enrichment ratio was at most 0.25. Turning to PSWG, the enrichment ratio was at most 0.25. On to TKTN, for which the enrichment ratio was at most 0.25.

Regarding WKHQ, the enrichment ratio was at most 0.25. DGVV: the enrichment ratio is at most 0.25. Turning to MGML, the enrichment ratio is 2.81.

For the variant VDQV, the enrichment ratio was at most 0.25.

Regarding TLMV, the enrichment ratio amounted to 5.76. Turning to HHDR, the enrichment ratio is at most 0.25. PVRP: the enrichment ratio was at most 0.25. On to PASQ, for which the enrichment ratio is at most 0.25. Next, LATN: at most 0.25; NNVK: at most 0.25. MLME: the enrichment ratio is at most 0.25. Take LNDS: the enrichment ratio was at most 0.25. On to INPT, for which the enrichment ratio is at most 0.25. On to AFTC, for which the enrichment ratio is at most 0.25. As to KDGT, the enrichment ratio was at most 0.25. Next, CKTF: at most 0.25; GQHT: at most 0.25. Take FHDL: the enrichment ratio was at most 0.25. For the variant VMKP, the enrichment ratio was at most 0.25.

EPCN: the enrichment ratio is at most 0.25.

As for TEWF, the enrichment ratio amounted to 22.

With GKKP, the enrichment ratio is at most 0.25.

As to FRAH, the enrichment ratio is at most 0.25. As to NLEV, the enrichment ratio was at most 0.25. Take ARIL: the enrichment ratio is 4.85.

As for CVWS, the enrichment ratio was at most 0.25. Next, GRHP: at most 0.25; RTCN: at most 0.25.

As to HVSF, the enrichment ratio was at most 0.25.

As for DKQA, the enrichment ratio is at most 0.25. As for VDTK, the enrichment ratio was at most 0.25. As to AIIW, the enrichment ratio is at most 0.25. Consider TNME, for which the enrichment ratio was at most 0.25. Next, IEYM: at most 0.25; MQCY: 3.23. Turning to TLEY, the enrichment ratio was at most 0.25.

In the case of LGEH, the enrichment ratio was at most 0.25. For the variant KGNY, the enrichment ratio is at most 0.25. As to MFHL, the enrichment ratio is at most 0.25.

Turning to DLKR, the enrichment ratio is at most 0.25. For QETC, the enrichment ratio came out at 4.56. Regarding MFGE, the enrichment ratio was at most 0.25. For YGED the value was at most 0.25. Consider KPVW, for which the enrichment ratio was at most 0.25. With AKRR, the enrichment ratio was at most 0.25. Regarding EHIG, the enrichment ratio is at most 0.25. Next, GFVI: at most 0.25; ITVQ: at most 0.25.

Turning to AIRT, the enrichment ratio was at most 0.25.

For AAVF, the enrichment ratio stood at 1.3. Next, YRSG: at most 0.25. With AMSM, the enrichment ratio was 15.1.

On to SHTM, for which the enrichment ratio came out at 6.19. In the case of VQDF, the enrichment ratio is at most 0.25.

Regarding INPY, the enrichment ratio is at most 0.25. For PPRH the value was at most 0.25; for NYAK, at most 0.25. On to HTAF, for which the enrichment ratio is at most 0.25. For IMCC, the enrichment ratio was at most 0.25. Next, SKYE: at most 0.25; LEKW: at most 0.25.

On to PEAF, for which the enrichment ratio is at most 0.25. Turning to KQNI, the enrichment ratio is at most 0.25. For the variant QGPF, the enrichment ratio was at most 0.25.

As to YLSI, the enrichment ratio is 0.303. Take WTFL: the enrichment ratio is at most 0.25.

Consider VKPG, for which the enrichment ratio is at most 0.25. For the variant SYEL, the enrichment ratio is at most 0.25.

Consider EFFP, for which the enrichment ratio was at most 0.25. Next, PSDY: at most 0.25.

As to YCKR, the enrichment ratio was at most 0.25. Turning to PANL, the enrichment ratio is at most 0.25. For LFMV, the enrichment ratio was at most 0.25. For the variant ELVK, the enrichment ratio was at most 0.25.

With QGTN, the enrichment ratio was at most 0.25. Take YNTR: the enrichment ratio is at most 0.25. For the variant YTCA, the enrichment ratio is at most 0.25. Turning to QFYT, the enrichment ratio is at most 0.25. Take YTDR: the enrichment ratio is at most 0.25. For SMRT the value was at most 0.25; for SKHG, at most 0.25; for VFRF, at most 0.25. In the case of SHHI, the enrichment ratio is at most 0.25. For the variant ALLR, the enrichment ratio is 1.77. For GCQR, the enrichment ratio is at most 0.25.

On to AGAS, for which the enrichment ratio stood at 4.36. For DPDF the value was at most 0.25; for ETDS, at most 0.25. Regarding STLD, the enrichment ratio was 10.5.

Take PLFC: the enrichment ratio is at most 0.25. On to NHQH, for which the enrichment ratio is at most 0.25. Regarding RGKG, the enrichment ratio is at most 0.25. For the variant HHRM, the enrichment ratio is at most 0.25. Regarding NHWG, the enrichment ratio is at most 0.25. QASS: the enrichment ratio is 8.4.

As to MIAH, the enrichment ratio was 9.47.

Take IRPF: the enrichment ratio was at most 0.25. Next, AFWI: at most 0.25. Consider YHIG, for which the enrichment ratio was at most 0.25.

VKFV: the enrichment ratio was at most 0.25.

As to SGKW, the enrichment ratio was at most 0.25. Next, YYMG: at most 0.25; IKWG: at most 0.25; MPVD: at most 0.25. For DNLE the value was at most 0.25. Consider SWWG, for which the enrichment ratio was at most 0.25. For KCTY, the enrichment ratio is at most 0.25. Next, GTKL: at most 0.25; WSYE: at most 0.25; TRTH: at most 0.25.

For the variant TCMY, the enrichment ratio came to 5.37. As for DWAK, the enrichment ratio was at most 0.25. HDGA: the enrichment ratio is at most 0.25. EFWG: the enrichment ratio is at most 0.25. For the variant MKCP, the enrichment ratio is at most 0.25. For LWDQ, the enrichment ratio was at most 0.25.

Consider MGFH, for which the enrichment ratio amounted to 5.64. Turning to VISY, the enrichment ratio is at most 0.25. Next, QYIC: at most 0.25. HSAT: the enrichment ratio was at most 0.25. Take VSCK: the enrichment ratio was at most 0.25.

For FHMW, the enrichment ratio is at most 0.25.
